In all, about 33,000 sequences were measured (“E-score (dimensionless, -0.5 to 0.5)”: median about -0.058, highest 2% from about 0.35 on). This is one part of the list.
Test system: MvaT
Assay: PBM 8-mer E-score (mean of HK and ME arrays) (E-score (dimensionless, -0.5 to 0.5)); higher = stronger relative binding preference; most listed sequences are background and not binding sites
In short: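 Reported values are rank-based E-scores, taken as the mean of two universal arrays and parsed with a custom script. Each 8-mer score falls between -0.5 and 0.5. The arrays, ME and HK, were double-stranded 60-mers with a constant 25-mer primer region and a variable 35-mer region covering all 8-mers. They were probed, by an earlier protocol, with full-length P. aeruginosa MvaT carrying an N-terminal glutathione S-transferase fusion.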

Row | Sequence | PBM 8-mer E-score
1 | CAGCGTCG | -0.155
2 | ATGTAAGG | -0.00135
3 | CCAGAGCC | -0.292
4 | CGCTTCTC | -0.135
5 | GACTAATA | 0.297
6 | GGAACTGA | -0.123
7 | ACGGATAG | -0.12
8 | CAAACCCG | -0.168
9 | AGTTAGCC | 0.0865
10 | GATCTATA | 0.158
11 | ACCTGTCC | -0.182
12 | CTGGCCAC | -0.182
13 | GATTTGTA | 0.205
14 | GTTGTTGA | 0.124
15 | CGCTTTAG | -0.0599
16 | TAGAAATA | 0.294
17 | AGTGAACA | 0.0076
18 | TGGTCGAA | -0.147
19 | AGAATGCC | -0.154
20 | CTTTCGCA | -0.127
21 | ATCTAAAT | 0.221
22 | CTTCGGTC | -0.113
23 | CGCCGGAG | -0.221
24 | AACTAAAC | 0.282
25 | GCCATCGA | -0.134

Row | Sequence | PBM 8-mer E-score
26 | CAGGAGGC | -0.281
27 | CGGTCGTA | -0.0948
28 | GCAAAAGC | -0.132
29 | GGGGTCCA | -0.219
30 | ACGAGGCA | -0.228
31 | CAAGGTAG | -0.102
32 | CACGAGGC | -0.18
33 | CGGCAAAA | 0.0672
34 | GCCAACCC | -0.121
35 | GAGGTTAA | 0.0368
36 | ATTTTATC | 0.202
37 | AGAGGCCC | -0.154
38 | AGCGATTC | 0.0202
39 | ACTCCTTG | -0.131
40 | AAATACGA | 0.108
41 | ACGCTACC | -0.112
42 | CTGCTACC | -0.141
43 | CCATAGTA | 0.0348
44 | AGTGAACG | -0.0531
45 | ATCGTGAC | -0.219
46 | CAATTACC | 0.192
47 | ATTCTCGA | 0.11
48 | GCTTAGTA | 0.144
49 | ACAGCTAT | 0.0504
50 | CCGTCCTA | -0.129

Row | Sequence | PBM 8-mer E-score
51 | CAGTGACG | -0.22
52 | GCTGTTAA | 0.162
53 | ACGCGTTG | -0.0108
54 | CCAGTTCG | -0.127
55 | AGGAATCC | -0.197
56 | CTTACGCC | -0.0391
57 | ATCGGGTA | -0.0863
58 | TACATCGA | 0.11
59 | ACGCTGAC | -0.0652
60 | GTACCAAC | -0.0687
61 | ATCGAAAC | 0.0275
62 | GCCTAAAA | -0.0431
63 | CCTGCGCA | -0.121
64 | CAGGCCCA | -0.231
65 | AGATGTGA | -0.0635
66 | AAGCAATT | 0.161
67 | TATGAAGA | 0.182
68 | GCATTTTA | 0.177
69 | CGTGTGAG | -0.275
70 | GAATGATA | 0.133
71 | AAAACTCA | 0.0646
72 | ACGGCACT | -0.186
73 | CATCGACC | -0.216
74 | ATTTATCC | 0.286
75 | TAAAATTA | 0.288

Row | Sequence | PBM 8-mer E-score
76 | AGAACCCG | -0.221
77 | CCTTACGA | -0.0553
78 | ATCTCTAA | -0.0417
79 | TCATAACA | 0.0779
80 | ACAGATCA | -0.00269
81 | GGCGTGGA | -0.173
82 | CACTCTCA | -0.183
83 | GAAATTAA | 0.331
84 | CACATAGA | 0.179
85 | CACAGACC | -0.233
86 | AATCTAGC | -0.0252
87 | GCATCAGC | -0.135
88 | TAGCATCA | 0.0156
89 | TCCCAAAA | -0.00576
90 | CTCCGTTC | -0.179
91 | ACGGCCAA | 0.0217
92 | AGCAACTC | -0.0122
93 | CGTCTCGC | -0.228
94 | AATCTGAA | 0.179
95 | CAAGCAGG | -0.0598
96 | CTACCACC | -0.0603
97 | GTGACCCA | -0.143
98 | CGTGCACG | 0.0125
99 | ATCCGCGG | -0.105
100 | CCACCACC | -0.0649

Row | Sequence | PBM 8-mer E-score
101 | AATTGAAT | 0.286
102 | CGACCACC | -0.189
103 | GATGTTTA | 0.256
104 | ATAATAGA | 0.364
105 | AATCGAGT | 0.0187
106 | CATACATA | 0.277
107 | AGACAGGC | -0.0933
108 | AAGGTCCT | -0.131
109 | ATACACGA | 0.125
110 | AGTGTTCG | -0.0659
111 | AATAACGA | 0.326
112 | CGATACCC | -0.141
113 | GAAGAGTC | -0.211
114 | CCCTGATA | -0.0808
115 | ACGAGGGC | -0.308
116 | GCCTCATA | -0.1
117 | AGTAATCC | -0.0578
118 | AGGGCGAG | -0.108
119 | ATGTTAAA | 0.329
120 | CATTGCCC | -0.0645
121 | ACGGATGG | -0.194
122 | GACAGCAA | 0.0964
123 | ACTGGTCG | -0.218
124 | CTGGACCC | -0.285
125 | ACGATCTA | 0.0186

Row | Sequence | PBM 8-mer E-score
126 | ACTCAAGC | -0.0815
127 | GATCGCAC | -0.108
128 | CGGTAAAG | 0.00449
129 | GATGTAGC | -0.189
130 | GGAAGTCC | -0.341
131 | ATCAGACC | -0.155
132 | AATATGCA | 0.264
133 | AATGAGCT | -0.164
134 | ATCGCAAC | 0.0331
135 | TCTCACAA | -0.0526
136 | AAAGGCTC | -0.23
137 | ACCTCTTA | 0.0241
138 | CAGTTGGA | -0.14
139 | GACTATCA | -0.0497
140 | CGTCGATA | 0.143
141 | ATCAAAAC | 0.106
142 | CTGATTCA | -0.00428
143 | GGCTTCCC | -0.266
144 | AGGTCGAT | -0.211
145 | GATACGAC | -0.0549
146 | ATCCGCCA | 0.0248
147 | GATATCGA | 0.0484
148 | GAACCAAC | -0.0644
149 | ACTCTTAG | 0.0697
150 | GATCTCCA | -0.11

Row | Sequence | PBM 8-mer E-score
151 | AAGAATCT | -0.0428
152 | GACACCCA | -0.167
153 | GGGCCAGA | -0.297
154 | ACGTTCAT | -0.0924
155 | AAGTCACA | -0.0046
156 | CAAACGCC | -0.216
157 | CAGACGAC | -0.131
158 | ACGTTAGA | -0.0394
159 | ATAACCAC | 0.174
160 | GTCACGAC | -0.172
161 | CCCAACAG | -0.146
162 | ATTGGAGC | -0.00417
163 | AAATCAGT | 0.111
164 | CGCCGTTA | 0.0739
165 | GGTTCCCA | -0.25
166 | GGAATGAC | -0.144
167 | CCTCCACA | -0.106
168 | CAAGTTGC | 0.0785
169 | GAACAGGA | 0.0121
170 | AGTGATAC | 0.13
171 | ATGTCTAA | 0.058
172 | AGTACCTC | -0.222
